# Data: PubChem BioAssay AID488969 (Vanderbilt High Throughput Screening Facility, 2010)
# Whole data set: some 110,000 compounds, median “z-score” near -0.1, cut for the highest 2% near 2. The list shows a part of the results. Activity calls are given as the source filed them.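 The calls were made as follows: active = z-score in the third read window above 3 or below -3; inactive = the rest.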
# Biological target: Metabotropic glutamate receptor 8 (Rattus norvegicus) (UniProt P70579)
# Assay: mGluR8 Gi/Go-coupled signaling modulation – cell-based, rat, thallium flux, HTS, primary screen (AID 488969)
# Conditions: HEK293 rat mGluR8, GIRK (G protein-gated inwardly rectifying potassium channel) thallium flux, FluoZin2; at 10 µM; stronger effect = higher value; submaximal glutamate (EC20) added with thallium
# UniProt P70579, sequence (P70579 whole entry, looked up): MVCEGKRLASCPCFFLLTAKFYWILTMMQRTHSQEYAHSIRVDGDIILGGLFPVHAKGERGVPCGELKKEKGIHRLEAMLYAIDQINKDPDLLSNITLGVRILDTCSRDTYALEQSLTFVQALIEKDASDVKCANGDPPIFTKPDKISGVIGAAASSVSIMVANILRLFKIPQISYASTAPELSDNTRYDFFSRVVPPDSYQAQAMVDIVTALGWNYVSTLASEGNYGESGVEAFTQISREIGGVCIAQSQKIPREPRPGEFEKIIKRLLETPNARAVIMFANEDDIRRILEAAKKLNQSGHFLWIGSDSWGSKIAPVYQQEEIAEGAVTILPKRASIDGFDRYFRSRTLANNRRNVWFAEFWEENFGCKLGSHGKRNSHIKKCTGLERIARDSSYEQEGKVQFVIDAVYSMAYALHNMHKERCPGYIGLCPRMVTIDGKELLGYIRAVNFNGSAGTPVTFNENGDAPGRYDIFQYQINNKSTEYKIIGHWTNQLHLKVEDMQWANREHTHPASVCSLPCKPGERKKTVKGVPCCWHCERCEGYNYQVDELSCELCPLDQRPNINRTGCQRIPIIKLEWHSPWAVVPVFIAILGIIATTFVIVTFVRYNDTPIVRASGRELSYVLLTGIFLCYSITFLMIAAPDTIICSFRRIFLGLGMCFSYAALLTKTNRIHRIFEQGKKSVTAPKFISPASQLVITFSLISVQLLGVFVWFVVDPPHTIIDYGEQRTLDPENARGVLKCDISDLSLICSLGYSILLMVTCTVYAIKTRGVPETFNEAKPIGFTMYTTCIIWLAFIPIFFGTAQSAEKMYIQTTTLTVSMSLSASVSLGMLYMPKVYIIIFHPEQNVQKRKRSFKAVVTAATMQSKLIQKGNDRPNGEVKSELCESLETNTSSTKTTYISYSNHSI
row,SMILES,z-score
1,CN(C)CCCNC(NC(=O)c1cccs1)C(Cl)(Cl)Cl (stereo unspecified),-0.135
2,Cc1nc2c([nH]1)C1(CCN(Cc3ccccc3)CC1)C(C#N)=C(N)O2,-1.37
3,CC(C)OCCCN1CN(S(=O)(=O)c2ccc(Cl)cc2)c2nc3ccccc3nc21,-0.249
4,CCOC(=O)c1cccc(S(=O)(=O)N2CCCC2)c1,-0.19
5,COc1ccc(/C=C/C(=O)c2ccccc2)cc1COc1ccccc1F,-0.0309
6,COc1cc2c(cc1OC)C(C1C(=O)CC(C)(C)CC1=O)N(C(=O)CCl)CC2 (stereo unspecified),-0.0957
7,O=C(CCN1CCOCC1)Nc1ccc2c(c1)CCC2,-0.0691
8,Nc1cc2c(cc1C(=O)c1ccc(Cl)cc1)OCCO2,-0.542
9,CCC(C)[C@H](NC(=O)N1CCN(c2cccc(C(F)(F)F)c2)CC1)C(=O)OC (stereo partly specified),-0.093
10,Cc1ccc(N2C(=O)C(CN(C)C)C2c2ccccc2)cc1 (stereo unspecified),-0.0908
11,N#CCC(=N)N1CCN(c2ccccc2)CC1,0.0541
12,COc1ccc(CCn2c(NCc3ccco3)nc3c2c(=O)[nH]c(=O)n3C)cc1,0.0433
13,COc1ccc(C(=O)N2CCN(C3CCC(c4ccccc4)CC3)CC2)cc1OC (stereo unspecified),-1.61
14,N=C1C(c2nc3ccccc3c(=O)[nH]2)=C(O)CN1CCO,-0.0279
15,COc1ccc(NC(=O)NC23CC4(C)CC(C)(CC(C)(C4)C2)C3)cc1,0.156
16,NNc1nc2ccc(F)cc2s1,-0.467
17,C[N+](C)(C)CCCCCC(=O)/C=N/O,1
18,CSc1ccc(/C=N/NC(=O)CN2CCN(Cc3ccccc3)CC2)cc1,-0.0744
19,COc1ccc(Cl)cc1Nc1nc(N)nc(C(F)(F)F)n1,0.302
20,Cc1cc2ccccc2n1CCNC(=O)Cc1ccccc1,-0.443
21,CCOC(=O)c1c(-c2ccc(C)o2)csc1NC(=O)CN(C)CC(=O)Nc1ccc(C)cc1,-0.104
22,COC(=O)C1CC(=O)N(CCc2c[nH]c3ccccc23)C1 (stereo unspecified),0.0229
23,O=C(Nc1nnc(-c2ccccc2SCc2ccccc2F)s1)Nc1ccccc1F,-0.0793

row,SMILES,z-score
1,COC(=O)c1sc2ccccc2c1-n1cccc1C(=O)C(=O)Nc1ccc(Cl)cc1,-0.228
2,CCOc1c(Cl)cc(C2NC(=O)NC(C)=C2C(=O)NCc2ccccc2)cc1OC (stereo unspecified),0.0963
3,COc1ccccc1NC(NC(=O)c1ccccn1)C(Cl)(Cl)Cl (stereo unspecified),0.00494
4,CCOC(=O)N1CCN(C(=O)c2ccc3c(=O)n(-c4ccc(OC)cc4)c(=S)[nH]c3c2)CC1,-0.582
5,CC(OC(=O)c1cccc(S(=O)(=O)Nc2cccc(C(F)(F)F)c2)c1)C(=O)Nc1ccc2c(c1)OCCO2 (stereo unspecified),1.12
6,CCc1nnc(NC(=O)C2CCCN2S(=O)(=O)c2ccc(C)cc2)s1 (stereo unspecified),0.535
7,CCCC(=O)NC(C)c1nc2ccccc2n1CC (stereo unspecified),-0.68
8,CC(=O)C1=C(C)NC(SCC(N)=O)=C(C#N)C1c1sccc1C (stereo unspecified),-1.12
9,CCOC(=O)c1[nH]c(C)c(C(=O)Nc2cccc(Cl)c2C)c1C,-0.362
10,O=C(CCc1nc2ccccc2c(=O)[nH]1)Nc1ccc(F)cc1,0.0151
11,CSc1ccccc1NC(=O)c1ccc(Br)o1,-0.471
12,Cc1onc(-c2ccccc2)c1-c1n[nH]c(=S)n1-c1ccccc1Cl,-0.134
13,CC(C)CNC(=O)c1c(N)n(/N=C/c2ccccn2)c2nc3ccccc3nc12,0.175
14,CC(=O)Nc1ccc(OCC(O)CN2CCN(c3cc(Cl)ccc3C)CC2)cc1 (stereo unspecified),0.103
15,Cc1oc2cc(O)ccc2c(=O)c1N1C(=O)c2ccccc2C1=O,0.266
16,COc1ccc(CCNC(=O)c2cc(-c3ccc(C)c(C)c3O)n[nH]2)cc1OC,-0.207
17,CCCNCCC(c1ccco1)c1ccccc1OC (stereo unspecified),-0.299
18,CC(Sc1nc2cc(Cl)ccc2s1)C(=O)Nc1ccc2c(c1)OCO2 (stereo unspecified),-0.296
19,COc1ccc(-c2noc(COc3ccc(C)c(C)c3)n2)cc1OC,0.212
20,Cc1cc(C)n(-c2nc3ccccc3c(=O)n2OCC(=O)Nc2c(C)cccc2C)n1,-0.202
21,Cc1cc(C)cc(OC(=O)CCN2C(=O)c3ccccc3C2=O)c1,0.513
22,Cc1nn(Cc2ccc(Cl)cc2)c(C)c1NC(=O)C1CC=CCC1C(=O)O (stereo unspecified),-0.0201
23,O=C(NCc1cn(-c2ccccc2)nc1-c1ccccc1)c1cccc([N+](=O)[O-])c1,-0.314

row,SMILES,z-score
1,COc1cc(NC(=O)C2CCC(CNc3c(N4CCC(C)CC4)c(=O)c3=O)CC2)cc(OC)c1 (stereo unspecified),-2.37
2,CC1CCN(Cc2csc(N)n2)CC1,-0.00755
3,Cc1c(N=C2NC(=O)C(CC(=O)Nc3ccccc3)S2)c(=O)n(-c2ccccc2)n1C (stereo unspecified),1.14
4,O=C(C(NS(=O)(=O)c1cccc2nsnc12)c1ccccc1)N1CCN(c2ccccc2)CC1 (stereo unspecified),0.466
5,CN(C)c1cccc(C(=O)Nc2ccc(N3CCOCC3)cc2)c1,-0.0628
6,CC(C)(C)OC(=O)N1CCC(c2cc(=O)n3[nH]c(-c4ccc(Cl)cc4)cc3n2)CC1,-0.208
7,Cc1ccc(NC(=O)C(=O)NCc2ccc(/C=N/NC(=O)c3c(C)nc4cc(C)ccn34)o2)cc1,-0.586
8,Cc1ccc(CS(=O)(=O)CCC(=O)NCC2CCCO2)cc1 (stereo unspecified),0.205
9,CCOC(=O)Cn1cnc2c(nnn2-c2ccc(OC)cc2)c1=O,-0.0987
10,CC(C)(C)c1csc(NC(=O)c2ccc3nccnc3c2)n1,active: 5.29
11,Cc1ccc(CSc2ncn(-c3ccccc3)n2)cc1,0.0447
12,Cn1nnc(NC(=O)CSc2ccc(Cl)cc2)n1,0.386
13,CCOC(=O)c1nc(S(C)(=O)=O)ncc1N1CCOCC1,1.31
14,O=C(c1cccc(S(=O)(=O)N2CCCC2)c1)c1cccc(S(=O)(=O)N2CCCC2)c1,0.0227
15,S=C(NCc1ccccc1)NCc1ccccc1,0.346
16,O=C(Cc1ccc(F)cc1)N1CCN=C1SCc1ccc([N+](=O)[O-])cc1,-0.0378
17,C=CCOC(=O)C1=C(C)NC(SC)=C(C#N)C1c1ccc(OCC)cc1 (stereo unspecified),-0.421
18,COc1ccc(Cl)cc1S(=O)(=O)n1ccnc1C(C)C,-0.0773
19,O=C(Oc1ccc(N(Cc2cccs2)C2=NS(=O)(=O)c3ccccc32)cc1)c1ccccc1,-0.255
20,CCOC(=O)N1CCN(CC(O)COCc2cc(OC)c(OC)c(OC)c2)CC1 (stereo unspecified),-0.259
21,CCOC(=O)c1sc2nc(CC(=O)OC)nc(NCc3ccc(Cl)cc3)c2c1C,-0.0302
22,CCCOc1ccc(NC(=O)CC2C(=O)N(CC)C(=S)N2Cc2cccs2)cc1 (stereo unspecified),-0.227
23,O=C(Nc1cccnc1)C1CCN(S(=O)(=O)c2cccc3nonc23)CC1,-0.148

row,SMILES,z-score
1,N#CC(=C1CCCC1)c1nc(-c2cc3ccccc3oc2=O)cs1,-0.96
2,CCc1ccccc1NC(=O)C(C#N)Cc1cccnc1 (stereo unspecified),0.345
3,Clc1ccc(CN=C2Nc3ccccc3CS2)cc1,-0.0923
4,Cc1ccc(N2CC(C(=O)Nc3cccnc3)CC2=O)cc1 (stereo unspecified),-0.238
5,CC(C)CC(=O)Nc1ccc(OCC(=O)O)cc1,-0.149
6,Cn1c(CCN2CCN(c3ccccc3)CC2)nc2cc(NC(=O)c3ccco3)ccc21,-0.501
7,O=C(CN1CCc2ccccc21)NC(=O)NCc1ccco1,0.562
8,O=[N+]([O-])c1c(NCCCO)cc(Sc2ccc(Cl)cc2)c2nonc12,-0.105
9,CC(=O)N1c2ccccc2NC(=O)C1(C)C,-0.113
10,Oc1sc(C=Nc2ccc(F)cc2)c2ccccc12,0.0762
11,Cc1cc(C)n(-c2ccc(C(=O)Nc3ccccc3N3CCOCC3)cc2)n1,0.328
12,CC(C)C(=O)Nc1ccc(C(=O)NNC(=O)c2ccco2)cc1,0.22
13,COc1cc(S(=O)(=O)Nc2ccccc2)ccc1NC=O,-0.154
14,O=C(Nc1nnc(CCN2CCCCC2)s1)C1CCCCC1,0.738
15,COc1cc2nc(=S)n3[nH]c(COc4ccccc4C)nc3c2cc1OC,-0.498
16,Cc1ccccc1-n1c(-c2csc3ccccc23)n[nH]c1=S,0.627
17,Nc1nnc(SCc2ccccc2Cl)s1,-0.1
18,CC(=O)Nc1ccc(C(=O)N/N=C(\C)CC(=O)Nc2ccc(OCc3ccccc3)cc2)cc1,-0.00625
19,CCC(C)[C@@H](C(=O)Nc1ccc2c(c1)OCO2)N1Cc2ccccc2C1=O (stereo partly specified),-0.331
20,CCOc1ccc(-c2nnc(SCC(=O)N3CCOCC3)o2)cc1,-0.569
21,COC(=O)[C@H](Cc1ccccc1)NC(=O)N1CCC(C)CC1,-0.214
22,Cn1ccnc1SCc1cn2cc(Br)ccc2n1,-0.0673
23,O=c1cc2c(n[nH]1)CCCC2,1.72

row,SMILES,z-score
1,CCOc1cc(C(c2c(C)[nH][nH]c2=O)c2c(C)[nH][nH]c2=O)ccc1OS(=O)(=O)c1ccccc1,-0.256
2,COc1ccc(N2CCN(c3ncnc4c3nnn4Cc3ccccc3Cl)CC2)cc1,0.0466
3,C=CCOc1c(CNc2nccs2)cccc1OCC,-0.513
4,CC[n+]1c(P(=O)([O-])c2ccccc2)[nH]c2ccccc21,0.0907
5,CCC(=O)N1CCN(c2ccc(NC(=O)COc3ccccc3Cl)cc2)CC1,-0.324
6,COc1cccc(C2=NO[C@@H]3C(=O)N(Cc4ccccc4)C(=O)[C@H]23)c1OC,-0.345
7,Cc1cc(-n2c(C)cc(C(=O)CSc3nnnn3-c3ccc(Cl)cc3)c2C)no1,-0.366
8,CCOc1ccc(N2CC(=O)Nc3ccccc3NCC2=O)cc1,1.28
9,COn1c(SC(C)C)nc2ccccc2c1=O,-0.948
10,O=C1C=C(NNC(=O)c2ccccc2Br)CCC1,-0.139
11,C=CCOC(=O)/C(=C\c1ccc(OC)cc1)NC(=O)c1ccco1,0.305
12,Cc1nn(CC(O)CN2c3ccccc3Sc3ccccc32)c(C)c1Br (stereo unspecified),-0.414
13,O=C(Nc1ccccc1)c1cccc(S(=O)(=O)NCc2ccco2)c1,0.186
14,O=C(CN(Cc1ccco1)C(=O)c1cccc(Cl)c1)Nc1c(Cl)cc(Cl)cc1Cl,-0.377
15,O=C(Cc1cccs1)N(c1ccc(F)cc1)C1(C(=O)NC2CCCCC2)CCCC1,-0.0595
16,COc1ccc(/C(N)=N/OC(=O)Cc2cccs2)cc1OC,-0.267
17,COc1ccc(S(=O)(=O)N2CCN(S(=O)(=O)c3ccc4c(c3)OCCO4)CC2)cc1C,0.899
18,CCN1CCN(CC(O)COC(C)C)CC1 (stereo unspecified),-0.109
19,O=C(c1cccc(N2C(=O)C3CC=CCC3C2=O)c1)N1CCN(c2ccccc2)CC1 (stereo unspecified),-0.0909
